Laboratory results reported in ChEMBL document CHEMBL4888484, “Replenishing the malaria drug discovery pipeline: Screening and hit evaluation of the MMV Hit Generation Library 1 (HGL1) against asexual blood stage Plasmodium falciparum ,using a nano luciferase reporter read-out” (2022).
Hit rate of the full screen: of about 150,000 compounds, about 540 (0.36%) showed an effect of 50% or more. The list shows a part of the results.

Tested on: Plasmodium falciparum
Assay: Primary screen in NF54 nanoGlo assay, in single point, at 2uM, 72h; a lower Z score goes with more inhibition
Type: functional, Erythrocyte
Conditions: timepoint 72 hour

SMILES	% Inhibition [%]	Z score
CCOc1ccc(CN2C[C@@H](CO)[C@H](NC(=O)C3CCC3)C2)cc1	-16	2.35
O=C(c1noc2ccc(S(=O)(=O)NC3CCCCC3)cc12)N1CCCC1	-5	0.72
O=C(CN1CCN(c2ccc(C3CC3)nn2)CC1)Nc1ccc2c(c1)OCCO2	3	-0.46
CCN(CC)CCOc1ccc(Cl)cc1Cl	-15	2.87
COc1ccc(C(=O)O)nc1-c1cccc(C(=O)N2C[C@@H](C)O[C@@H](C)C2)c1	7	-1.36
C[C@@H](NC(=O)N1CC(F)C1)c1ccccc1	4	-0.51
Cc1cccc(Cl)c1NC(=O)N1CCC(n2cc([C@H](C)O)nn2)CC1	-14	1.81
O=C(NCCn1c(=O)[nH]c2ccsc2c1=O)OC1CCCC1	-5	1.02
Cc1nc(O)c(Cl)c(N2CCC(CCN3CCCC3)CC2)n1	-20	2.28
CCCc1[nH]nc(-c2ccc(C(F)(F)F)cc2)c1NC(=O)C1CCCC1	4	-0.75
CNC(=O)[C@H](Cc1c[nH]cn1)NS(=O)(=O)CCC1CCCCC1	3	-0.61
O=C(CN1C(=O)COc2ccc(Cl)cc21)N1CCCc2ccccc21	-3	0.39
OCc1cccc(-n2ccnc2-c2ccc3c(c2)OCCO3)c1	-3	0.31
O=C1CC[C@H](C(=O)N2CCCCO2)CN1CCc1ccccn1	2	-0.26
CC(C)(C)c1ccc(=O)n(CN2CCN(C(=O)C3CCCC3)CC2)n1	2	-0.15
Cc1nc(O)cc(Cn2cnc(-c3ccccc3)c2[C@H]2CCOC2)n1	-10	1.37
O=C(CCc1ccc2c(c1)OCCO2)N1CCCC1	-3	0.45
Cc1ccc(C(=O)NCCC(C)C)cc1-n1nnc2cccnc21	-18	3.46
CC(C)c1ccc(C(=O)N[C@@H]2CCCC[C@H]2O)c(O)c1	-7	1.06
NC(=O)c1c(N)sc2c1CCN(Cc1ccccc1)C2	2	-0.33
CO[C@@H](Cc1ccccc1)CS(=O)(=O)N(C)c1ccn(C)n1	-11	1.19
CN1CCC(N(Cc2ccco2)C(=O)c2ccc(O)cc2F)CC1	-11	1.13

SMILES	% Inhibition [%]	Z score
COc1ccc(-c2c3c(=O)[nH]n(C(C)C)c3nc3[nH]c(=O)n(C)c23)cc1OC	-38	4.45
Cc1cc(C(=O)N(Cc2ccccc2)Cc2ccccc2)n(C)n1	-6	0.98
CC(C)N(CC(=O)N1CCNC1=O)Cc1cc2c(s1)CCC2	5	-0.71
Cc1ccc(NC(=O)N2Cc3cncnc3C2)cc1	-6	1.08
COC[C@@H]1CN(c2cnccn2)C[C@H]1C(=O)NCc1ccco1	-13	1.98
Cc1ccc(CN(C(=O)C(F)(F)F)c2cnccn2)cc1	-4	0.42
C[C@H](NC(=N)N)c1cccc(Br)c1	-8	1.22
COc1ccccc1N1CCN(C2CCN(C[C@H]3CCCCO3)CC2)CC1	4	-0.5
c1cc(C2CCCC2)nc(NCCc2nccs2)n1	-3	0.52
COc1ccc(C2=NC3=S(N2c2ccccc2)N(C(C)=O)C(C(Cl)(Cl)Cl)N3c2ccccc2)cc1 (stereo not given)	37	-1.24
CNC(=O)[C@H](C)NC(=O)c1ccc(N2CCC2)nc1	-7	1.19
O=C(NCc1noc(-c2ccccc2)n1)Nc1cccnc1	-9	1.2
COc1ccc2cc1OCC(=O)N[C@@H](C)C(=O)N(C)CCCCN(c1ncnc3sccc13)CCCNC(=O)CC2	9	-1.22
O=C1C[C@H](c2cc(F)cc(F)c2)c2cnn(-c3cccc(Cl)c3)c2N1	11	-1.43
COc1ccc(NC(=O)Nc2c(-c3cccnc3)[nH]c3ccc(F)cc23)cc1	3	-0.49
Cc1ccc(C)c(OCC(=O)N2CCC(CCN3CCCC3=O)CC2)c1C	4	-0.55
COc1cc(N[C@H]2CCOC[C@@H]2OCCN(C)C)nc(OC)n1	-9	1.25
c1ccc(-c2cnn([C@@H]3CCCCO3)n2)nc1	-3	0.36
COc1ccc([C@@H](O)Cn2cnc(C(=O)Nc3ccc(F)cc3)n2)cc1	-6	0.71
Cc1noc2ncn(CC(=O)Nc3nccs3)c(=O)c12	4	-0.7
Cc1c(Cl)cccc1S(=O)(=O)N1CC[C@H](c2ccc3c(c2)CCO3)C1	-17	2.01
Cn1nncc1CNc1c(F)cccc1F	-4	0.78

SMILES	% Inhibition [%]	Z score
Cn1cc(NC(=O)N[C@@H]2CCC[C@@H]2n2ccnc2)c(C2CC2)n1	4	-0.54
CC(C)c1nc(N2CCO[C@H](c3ccc(F)cc3)C2)no1	-9	1.18
O=C(Nc1ccc2nc(N3CCCC3)sc2c1)c1ccc2c(c1)OCCO2	-5	0.52
COc1cc2c(cc1-c1cn([C@H]3CS(=O)(=O)C[C@@H]3O)nn1)CCC2	0	0.05
O=C(C[C@H]1CCCN1c1nccn2cnnc12)c1ccc(F)cc1	-19	2.51
Cc1ccc(-c2noc(Cn3cnc4ccccc43)n2)cc1	-12	1.86
COc1ccc2ncc(C(=O)N(CCS(C)(=O)=O)C3CC3)n2n1	-5	0.84
CC(C)N1CCCN(Cc2nccs2)CC1	-6	0.94
Cc1nc2c([nH]1)CN(Cc1cc3c(cc1Cl)OCO3)CC2	-22	2.18
COc1cccc(-c2ccc(N3CCN(C(=O)CN(CCN4CCOCC4)C(=O)C(C)C)CC3)nn2)c1	-9	1.34
CCN1C[C@H](CN(C)S(=O)(=O)c2c(Cl)cccc2Cl)Oc2ccccc21	1	-0.27
O[C@@]1(CNc2cc(-c3ccccc3F)nc3ccnn23)CCCNC1	7	-1.32
Cc1cccc(Cn2c(=O)n(CCNC(=O)CC(C)(C)C)c3ncccc32)c1	-15	1.73
COc1ccc(NC(=O)Cn2nc3c4sc(N5CCCCCC5)nc4ncn3c2=O)cc1	-10	1.15
Cn1nccc1C(=O)Nc1cc(S(=O)(=O)N2CCCC2)ccn1	2	-0.39
Cc1cc(CNC(=O)c2coc(-c3ccccc3)n2)ccc1S(N)(=O)=O	4	-0.53
c1ccc2c(c1)CN(c1ccnc(C3CC3)n1)CCO2	-15	1.73
CCCN1C[C@@H](NCc2nccn2CCOC)CC1=O	-17	1.62
CC1CCN(C(=O)NCC(C)(C)S(C)(=O)=O)CC(C)C1 (stereo not given)	12	-1.31
CCc1c(-c2nc([C@H]3CCOC3)no2)[nH]c2ccccc12	13	-2.17
Cc1ccc(C(=O)OC[C@H]2CN(C)CCO2)c(F)c1	-5	0.86
COc1cccc2c1CCC[C@H](NC(=O)NCc1cccnc1C)C2	-4	0.68

SMILES	% Inhibition [%]	Z score
Cc1ccccc1NC(=O)Cn1nc(C2CC2)cc1C(=O)N1CCCC1	-6	0.93
Cc1noc2ncnc(N3CCC[C@@](CO)(CCOc4ccccc4)C3)c12	-6	1.07
C=C(C)CN(CC)C(=O)Nc1cc(C)ccn1	2	-0.28
C#CCCC1(CCC(=O)N2CC[C@H](NC(C)=O)C2)N=N1	-15	1.81
Cn1nc(-c2cccnc2)c2[nH]c(-c3ccc4c(c3)CC(C)(C)O4)nc21	-6	0.65
Cc1ccc(C)c(NC(=O)Cn2ccn3nc4c(c3c2=O)CCCC4)c1	-14	1.33
O=C(c1ccn(CC(F)(F)F)n1)N1CC=C[C@@H]1CO	-4	0.46
Cc1ccc(C(N)=O)c(N2Cc3cnc(CC(C)C)nc3C2)n1	22	-2.8
Cc1ccc(CS(=O)(=O)NCc2cc[nH]n2)cc1F	-14	2.72
CCN1C(=O)CN(CN2CCN(c3ccccc3F)CC2)C1=O	-11	1.14
CC(=O)c1c[nH]c(C(=O)Nc2ccc(N3CC(C)OC(C)C3)cc2)c1 (stereo not given)	-1	0.23
Cc1cccc(O[C@@H](C)C(=O)Nc2nc(-c3ccc4c(c3)OCCO4)cs2)c1	1	-0.2
CC1CN(C(=O)c2cnc(C3CC3)s2)CC(C)N1C (stereo not given)	-6	0.94
O=C(Nc1ccc(Nc2ncccn2)cc1)[C@@H]1Cc2ccccc2O1	-6	1.13
CCc1ccc(CNC(=O)c2nnn(-c3ccc(F)c(C)c3)c2-c2ccccn2)cc1	5	-1
Cn1nnc2c1CC(C(=O)NC1COc3ccc(F)cc3C1)CC2 (stereo not given)	1	-0.11
COc1cccc(-n2cnc3c2[C@@H](c2cc(OC)c(O)c(OC)c2)CC(=O)N3)c1	-1	0.12
COc1cccc(N2CCN(c3nccn4c(C)nnc34)CC2)c1	3	-0.48
FC(F)(F)c1ccnc(N2CC(Cn3cccn3)C2)n1	-11	1.27
